Assay results taken from PubChem BioAssay AID1347165 (National Center for Advancing Translational Sciences (NCATS), 2019).
Where “and” joins values, the source holds several entries; their conditions need not be identical. Equal entries are not always repeated. Out of some 220,000 compounds screened, about 5,700 (2.6%) were called active. This list was built around the results that the source calls inconclusive (neither active nor inactive); the mix of calls is not that of the screen. The call rests on the fitted dose curve; in most records, active means well fitted inhibition curve with a large enough effect; inconclusive means small, poorly fitted or top-dose-only effect; inactive means no such curve, though single readings can be large or run the other way. Potencies of inconclusive entries are doubtful fits and often do not repeat.

The molecules below were run against Lysine-specific demethylase 5B (Homo sapiens) (UniProt Q9UGL1) (assay: Primary screen for KDM5B Histone Demethylases FDH-coupled qHTS). Details: FDH-coupled NADH fluorescence (FDH is formaldehyde dehydrogenase); activity change, negative = inhibition: at 57.7 µM (top of the series) unless noted.
Chain of UniProt Q9UGL1 (Q9UGL1 whole entry, looked up): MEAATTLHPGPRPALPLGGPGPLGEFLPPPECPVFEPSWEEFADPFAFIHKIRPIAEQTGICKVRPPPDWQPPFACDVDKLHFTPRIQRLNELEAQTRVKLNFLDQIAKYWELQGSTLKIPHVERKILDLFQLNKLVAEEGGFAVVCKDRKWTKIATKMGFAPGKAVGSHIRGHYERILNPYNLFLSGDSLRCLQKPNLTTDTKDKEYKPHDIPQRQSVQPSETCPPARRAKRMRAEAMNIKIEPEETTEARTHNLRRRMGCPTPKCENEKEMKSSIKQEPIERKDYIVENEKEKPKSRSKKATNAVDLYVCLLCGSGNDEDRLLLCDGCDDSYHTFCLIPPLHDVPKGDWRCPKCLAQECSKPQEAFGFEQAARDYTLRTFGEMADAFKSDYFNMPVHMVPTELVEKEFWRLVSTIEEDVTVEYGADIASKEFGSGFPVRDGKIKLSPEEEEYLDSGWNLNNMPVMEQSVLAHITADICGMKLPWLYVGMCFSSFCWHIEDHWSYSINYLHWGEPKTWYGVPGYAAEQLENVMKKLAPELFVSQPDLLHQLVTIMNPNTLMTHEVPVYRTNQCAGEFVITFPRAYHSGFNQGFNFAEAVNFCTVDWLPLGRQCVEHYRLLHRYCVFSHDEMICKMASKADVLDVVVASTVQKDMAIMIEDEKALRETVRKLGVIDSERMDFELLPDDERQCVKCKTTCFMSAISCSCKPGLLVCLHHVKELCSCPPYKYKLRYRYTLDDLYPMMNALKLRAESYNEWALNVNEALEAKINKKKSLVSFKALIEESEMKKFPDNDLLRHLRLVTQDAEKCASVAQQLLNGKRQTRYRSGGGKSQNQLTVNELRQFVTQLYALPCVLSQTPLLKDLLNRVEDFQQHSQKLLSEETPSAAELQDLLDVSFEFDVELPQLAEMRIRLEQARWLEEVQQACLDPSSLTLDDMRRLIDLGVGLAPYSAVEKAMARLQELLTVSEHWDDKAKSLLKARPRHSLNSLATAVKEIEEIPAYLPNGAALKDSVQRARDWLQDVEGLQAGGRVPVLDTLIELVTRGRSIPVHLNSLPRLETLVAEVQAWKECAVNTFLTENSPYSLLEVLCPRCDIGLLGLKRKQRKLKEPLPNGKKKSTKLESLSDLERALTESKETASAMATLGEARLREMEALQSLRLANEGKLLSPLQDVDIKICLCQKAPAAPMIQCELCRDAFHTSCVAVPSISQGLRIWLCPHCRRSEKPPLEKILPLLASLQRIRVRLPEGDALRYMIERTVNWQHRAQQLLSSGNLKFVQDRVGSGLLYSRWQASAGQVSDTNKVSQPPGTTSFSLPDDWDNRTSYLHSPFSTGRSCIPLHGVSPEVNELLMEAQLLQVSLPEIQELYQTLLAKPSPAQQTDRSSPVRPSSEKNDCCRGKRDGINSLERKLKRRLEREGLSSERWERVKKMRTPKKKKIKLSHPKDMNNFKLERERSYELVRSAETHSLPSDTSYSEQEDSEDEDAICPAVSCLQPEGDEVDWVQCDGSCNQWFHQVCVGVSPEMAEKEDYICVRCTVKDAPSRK
How it was run: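 Measured: NADH fluorescence change, 30 min, RT. System: KDM5BΔAP 200 nM final, H3K4me3 peptide, α-KG, Fe(II), ascorbate, NAD⁺ plus FDH, pH 7.5 HEPES. Compounds: titrated, 10 min pre-incubation with enzyme.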
Further: nearly all actives have a fitted effect of over 70% in size.
Potency means the concentration at half of the fitted maximal effect; tags describe the fitted curve by direction and shape.
Wherever activity change, negative = inhibition is given: 0% is about no effect.

SMILES	Potency	activity change, negative = inhibition
CCc1cccc(C)c1NC(=O)Cn1c(=O)cc(C(F)(F)F)c2c(C)nn(C)c21	inconclusive: 50.1 µM [inhibitor, single point]	–
CCOc1ccc(C(=O)Nc2ccc(S(=O)(=O)N3CCCCC3c3cccnc3)cc2)cc1 (stereo not given)	inconclusive: 31.6 µM [inhibitor, single point]	–
CCC(=O)c1c(OCCC(C)C)ccc2c(C)cc(=O)oc12	inconclusive: 39.8 µM [inhibitor, single point]	–
Cc1cc2nc3n(c(=O)c2n1CC(=O)Nc1ccccc1C(C)C)CCCCC3	–	inactive: -12.9%
COc1ccc(/C=C/c2nc3ccccc3[nH]c2=O)cc1	–	inactive: -22.3%
N#C/C(=C\c1ccc([N+](=O)[O-])o1)C(=O)NC1CCCCC1	inconclusive: 31.6 µM [inhibitor, single point]	–
O=C(N[C@H]1CC[C@H](Nc2nccc(-c3cccnc3)n2)C1)c1ccc(O)cc1	active: 20 µM	–
CCOc1ccc(CCNC(=O)c2cnc3sc(N4CCOCC4)nn3c2=O)cc1	inconclusive: 1.58 µM [inhibitor, full curve, poor fit]	–
Cc1nc(NC(=O)c2c(F)cccc2Cl)sc1C	–	inactive: 2.58%
COc1ccc(-c2nc3nc(C)cc(Nc4ccc(C(C)=O)cc4)n3n2)cc1	inconclusive: 22.4 µM [inhibitor, single point]	–
FC(F)(F)c1cccc(N/N=C/c2cccs2)c1	–	inactive: -6.22%
CN1CCOc2c(C(=O)NCCc3cnc[nH]3)cc(-c3cccc4[nH]ccc34)cc21	active: 31.6 µM	–
CCOc1cccc(CNc2nn[nH]n2)c1OCc1ccccc1	inconclusive: 39.8 µM [inhibitor, single point]	–
CCN(CC)S(=O)(=O)c1ccc(NC)c(N)c1	–	inactive: -21.4%
Cc1coc2c(C)c3oc(=O)c(CC(=O)N4CCCCC4)c(C)c3cc12	inconclusive: 3.55 µM [inhibitor, full curve, poor fit]	–
Cc1noc(C)c1-c1cc2c(cc(C)n2C)c(-c2ccccc2)n1	–	inactive: -3800% [at 86.2 µM]
O=C(CCn1c(=O)c2cccn2c2ccc(F)cc21)NCCc1ccccc1Cl	inconclusive: 39.8 µM [inhibitor, single point]	–
CCCSc1nc2c(c(=O)[nH]c(=O)n2C)n1CCOCC	inconclusive: 25.1 µM [inhibitor, partial curve, poor fit]	–
C=CCC(=O)N1CCCC1C(=O)Nc1ccccc1-c1ccc(OC)cc1 (stereo not given)	inconclusive: 6.31 µM [inhibitor, single point]	–
Cc1cc(C)c2cc(C(=O)NCCN(C(C)C)C(C)C)[nH]c2c1	inconclusive: 17.8 µM [inhibitor, partial curve, poor fit]	–
O=C(CCC(=O)N1CC=C(c2c[nH]c3ncccc23)CC1)c1ccc(F)cc1	–	inactive: -15.4%
CN1C(=O)CO[C@H]2CN(C(=O)c3cnccn3)C[C@H]21	inconclusive: 35.5 µM [inhibitor, partial curve, poor fit]	–
N#Cc1nc(/C=C/c2ccccc2)oc1N1CCN(c2ccccc2)CC1	inconclusive: 28.2 µM [inhibitor, partial curve, poor fit]	–
COc1ccccc1-c1[nH]nc2ncc(C(=O)NCC3CCOCC3)nc12	inconclusive: 56.2 µM [inhibitor, single point]	–

SMILES	Potency	activity change, negative = inhibition
O=C(Nc1cccc(C(F)(F)F)c1)N[C@H]1CO[C@H]2[C@@H]1OC[C@@H]2Nc1nccc(C2CCCC2)n1	inconclusive: 39.8 µM [inhibitor, partial curve, poor fit]	–
CC(C)c1nnsc1CN1CCn2nc(CCC(=O)N3CCCC3)cc2C1	inconclusive: 28.2 µM [inhibitor, partial curve]	–
CC(NC(=O)CCn1c(=O)c2cccn2c2ccc(F)cc21)c1ccccc1 (stereo not given)	inconclusive: 2.82 µM [inhibitor, partial curve, poor fit]	–
Fc1ccc(Cc2nc3nccc(-c4cccs4)n3n2)cc1	active: 28.2 µM	–
Cc1nc2c(c(-c3ccc(O)cc3)n1)CN(Cc1cccc3ccccc13)CC2	inconclusive: 22.4 µM [inhibitor, partial curve]	–
CS(=O)(=O)N1CCCCC1CCNc1nccc(-c2cccnc2)n1 (stereo not given)	active: 31.6 µM	–
CN1c2cc(C(=O)NCc3ccccc3Cl)ccc2C(=O)N2CCCC21 (stereo not given)	inconclusive: 25.1 µM [inhibitor, partial curve, poor fit]	–
Cc1ccc(-c2cccc(COc3cnc4c(ccn4CC(=O)O)c3)c2)cc1	active: 35.5 µM	–
CCN(C(=O)COc1cc(=O)n(C)c2ccccc12)c1cccc(C(F)(F)F)c1	inconclusive: 25.1 µM [inhibitor, partial curve, poor fit]	–
CCC(Cn1ccnc1)NC(=O)c1cccc(NCc2ccc(F)cc2)c1 (stereo not given)	active: 20 µM	–
C=CCOc1ccc2c(=O)c(Oc3cc(C)cc(C)c3)coc2c1	–	inactive: 12%
Cc1ccccc1CN1CCc2nc(Nc3ccc4c(c3)OCCO4)ncc2C1	inconclusive: 31.6 µM [inhibitor, partial curve, poor fit]	–
CCOc1ccc(CCNC(=O)c2ccc(CS(=O)(=O)Cc3ccccc3Cl)o2)cc1OCC	–	inconclusive: -32.9% [inhibitor]
c1ccc(CCCc2noc(-c3ccc(N4CCCNCC4)nc3)n2)cc1	inconclusive: 25.1 µM [inhibitor, partial curve, poor fit]	–
O=C(C1CC(=O)N(c2n[nH]c3ccccc23)C1)N1CCc2c([nH]c3ccccc23)C1 (stereo not given)	inconclusive: 7.94 µM [inhibitor, partial curve]	–
COC(=O)c1ccc(NC(=O)c2cnccn2)cc1	–	inactive: 14.2%
CSCC(=O)Nc1nn(-c2ccc(F)cc2)c2cccc(N3CCOCC3)c12	active: 25.1 µM	–
CCOC(=O)CCNC(=O)N1c2ccccc2CC1c1nc(C(C)C)no1 (stereo not given)	–	inactive: -19.4%
COc1ccc(CN2C[C@H](O)C[C@H]2c2nc(-c3ccncc3)no2)cc1	–	inactive: 9.04% [at 86.2 µM]
Cn1ccc(Nc2ccc3nnc(-c4ccccn4)n3n2)n1	inconclusive: 35.5 µM [inhibitor, partial curve, poor fit]	–
COc1ccc(C=O)cc1COc1ccc(-c2ccccc2)cc1	–	inactive: 10.8%
COC(=O)CNC(=O)N1CCCCC1c1nc(CCOc2cccc(C)c2)no1 (stereo not given)	–	inactive: -12.9%
Cc1cc(C)n2c(Nc3c(C)cccc3C)c(-c3ccsc3)nc2n1	inconclusive: 2.82 µM [inhibitor, full curve, poor fit]	–
CCn1nc(C(=O)N2CC(C(=O)N(C)C)Oc3ccccc32)c2ccccc2c1=O (stereo not given)	–	inactive: 14.5%

SMILES	Potency	activity change, negative = inhibition
Cn1nc(C(=O)N2CCCN(Cc3ccncc3)C(c3ccccc3)CC(=O)NCC2)c2ccccc21 (stereo not given)	inconclusive: 17.8 µM [inhibitor, single point]	–
Cn1cccc1CN1CCn2c(nn(-c3cccc(Cl)c3)c2=O)C1	active: 63.1 µM	–
O=c1oc2ccccc2c(NCc2ccccc2)c1NS(=O)(=O)c1cc(F)ccc1F	–	inactive: 1.73%
COc1ncccc1-c1cnc2[nH]cc(CC(=O)Nc3ccn(C)n3)c2c1	active: 31.6 µM	–
O=C(Nc1ccc(F)c(F)c1)c1cc2cc(Br)ccc2oc1=O	–	inactive: 19.9%
Cc1nc2nc(SCC(=O)NCc3ccccc3)nn2c(C)c1Cc1ccccc1Cl	inconclusive: 39.8 µM [inhibitor, single point]	–
CCOC(=O)C1=C(c2ccccc2)NC(=S)NC1c1ccc(C)cc1 (stereo not given)	inconclusive: 10 µM [inhibitor, partial curve, poor fit]	–
CN1CCN(c2oc(-c3cccc(Cl)c3)nc2C#N)CC1	inconclusive: 39.8 µM [inhibitor, single point]	–
COCCN1CC2(CCCN(C(=O)c3ccc(C)n(C)c3=O)C2)CCC1=O (stereo not given)	–	inactive: -26.5%
Cc1ccc(-n2ncc3c(NCCc4ccccc4)ncnc32)cc1C	inconclusive: 39.8 µM [inhibitor, single point]	–
O=C(Nc1cccc2ccccc12)N[C@H]1CO[C@H]2[C@@H]1OC[C@@H]2n1nnnc1Oc1ccc2c(c1)OCO2	inconclusive: 15.8 µM [inhibitor, single point]	–
CC(NCC(C#N)CCC#N)c1cccc(Br)c1 (stereo not given)	–	inactive: -13%
O=[S+]([O-])(c1cccnc1)N1CCNc2cnc(Nc3ccc(-n4ccnc4)cc3)nc2C1	inconclusive: 8.91 µM [inhibitor, partial curve, poor fit]	–
CC(C)NC(=O)/C(C#N)=C/c1ccc(C(=O)O)cc1	–	inactive: -15.5%
Cc1nn(C)cc1CN1C[C@@H](COCC(N)=O)[C@H](c2ccncc2)C1	inconclusive: 14.1 µM [inhibitor, partial curve]	–
Cc1cc(Oc2nc3ccccn3c(=O)c2/C=C(\C#N)C(=O)NC2CCS(=O)(=O)C2)ccc1Cl (stereo not given)	inconclusive: 35.5 µM [inhibitor, partial curve, poor fit]	–
Cc1ccc(C)c(CN2CCC(CNC(=O)Cn3ncc4c([nH]c5ccccc54)c3=O)CC2)c1	inconclusive: 39.8 µM [inhibitor, single point]	–
COc1ccc2nc3n(c2c1)[C@@H](CNS(=O)(=O)Cc1ccccc1)COC3	inconclusive: 31.6 µM [inhibitor, single point]	–
CCN(CC)c1cc(CCC(=O)NCCCN2CCOCC2)ccn1	active: 25.1 µM	–
O=C(O)CCCC1OC(CCCC(=O)O)OC(CCCC(=O)O)O1 (stereo not given)	–	inactive: 17.2%
Cc1ccc(-n2c(C3CCN(C(=O)Cc4ccc(F)cc4)CC3)n[nH]c2=O)cc1	–	inactive: 17.1%
c1cc2nc(C3CCN(C4CCCCC4)C3)[nH]c2cn1 (stereo not given)	inconclusive: 100 µM [inhibitor, partial curve] and active: 39.8 µM	–
